# This is one part of the list.
# B1: HPA (Helix pomatia), Q575S3 (protein)
# chain: MWAHLTGLLLICALSLSAAQRAQTGEIDCGSDSSWPKDPSDNPNRDNTREIVKHVTFSPQFCREPKVILSVTTLDAEHTKNLRYEARLKSVSPSGLSASCYSWHDGTIYRMKLSWLAVED
# Tests used:
# Experiment in all cases: glycan array binding signal (z-score within array); higher = stronger binding
# Conditions in all cases: glycan notation: IUPAC condensed, linker removed
# [1] = target: GlcNAc(b1-2)[GlcNAc(b1-4)]Man(a1-3)[GlcNAc(b1-4)][GlcNAc(b1-2)[GlcNAc(b1-6)]Man(a1-6)]Man(b1-4)GlcNAc(b1-4)GlcNAc
# Summary of the method: (§1)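 Glycan array data came from 3228 arrays in the Consortium for Functional Glycomics database, and only arrays with an available protein sequence were kept. Glycan names were put into IUPAC-condensed notation, and columns mapping to the same glycan were averaged. The binding signal is a within-array Z-score, averaged across arrays of one protein sequence run at different concentrations or buffers and across linkers. A negative Z-score can be read as non-binding.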
# [2] = target: GlcNAc(b1-2)[GlcNAc(b1-4)]Man(a1-3)[GlcNAc(b1-4)][GlcNAc(b1-2)[GlcNAc(b1-6)]Man(a1-6)]Man(b1-4)GlcNAc(b1-4)[Fuc(a1-6)]GlcNAc
# Summary of the method: as §1
# [3] = target: GlcNAc(b1-2)[GlcNAc(b1-6)]Man(a1-6)[GlcNAc(b1-2)Man(a1-3)]Man(b1-4)GlcNAc(b1-4)GlcNAc
# Summary of the method: as §1
# [4] = target: GlcNAc(b1-2)[GlcNAc(b1-6)]Man(a1-6)[GlcNAc(b1-2)Man(a1-3)]Man(b1-4)GlcNAc(b1-4)[Fuc(a1-6)]GlcNAc
# Summary of the method: as §1
# [5] = target: GlcNAc(b1-2)[GlcNAc(b1-6)]Man(a1-6)[GlcNAc(b1-2)Man(a1-3)][GlcNAc(b1-4)]Man(b1-4)GlcNAc(b1-4)GlcNAc
# Summary of the method: as §1
# [6] = target: GlcNAc(b1-2)[GlcNAc(b1-6)]Man(a1-6)[GlcNAc(b1-4)][GlcNAc(b1-2)Man(a1-3)]Man(b1-4)GlcNAc(b1-4)GlcNAc
# Summary of the method: as §1
# [7] = target: GlcNAc(b1-3)Fuc
# Summary of the method: as §1
# [8] = target: GlcNAc(b1-3)Gal
# Summary of the method: as §1
# [9] = target: GlcNAc(b1-3)Gal(b1-3)GalNAc
# Summary of the method: as §1
# [10] = target: GlcNAc(b1-3)Gal(b1-4)Glc
# Summary of the method: as §1
# [11] = target: GlcNAc(b1-3)Gal(b1-4)GlcNAc
# Summary of the method: as §1
# [12] = target: GlcNAc(b1-3)Gal(b1-4)GlcNAc(b1-2)Man(a1-3)[GlcNAc(b1-3)Gal(b1-4)GlcNAc(b1-2)Man(a1-6)]Man(b1-4)GlcNAc(b1-4)GlcNAc
# Summary of the method: as §1
# [13] = target: GlcNAc(b1-3)Gal(b1-4)GlcNAc(b1-2)Man(a1-3)[GlcNAc(b1-3)Gal(b1-4)GlcNAc(b1-2)Man(a1-6)]Man(b1-4)GlcNAc(b1-4)[Fuc(a1-6)]GlcNAc
# Summary of the method: as §1
# [14] = target: GlcNAc(b1-3)Gal(b1-4)GlcNAc(b1-2)[GlcNAc(b1-3)Gal(b1-4)GlcNAc(b1-6)]Man(a1-6)[GlcNAc(b1-3)Gal(b1-4)GlcNAc(b1-2)Man(a1-3)]Man(b1-4)GlcNAc(b1-4)GlcNAc
# Summary of the method: as §1
# [15] = target: GlcNAc(b1-3)Gal(b1-4)GlcNAc(b1-3)Gal(b1-4)GlcNAc
# Summary of the method: as §1
# [16] = target: GlcNAc(b1-3)Gal(b1-4)GlcNAc(b1-3)Gal(b1-4)GlcNAc(b1-2)Man(a1-3)[GlcNAc(b1-3)Gal(b1-4)GlcNAc(b1-3)Gal(b1-4)GlcNAc(b1-2)Man(a1-6)]Man(b1-4)GlcNAc(b1-4)GlcNAc
# Summary of the method: as §1
# [17] = target: GlcNAc(b1-3)Gal(b1-4)GlcNAc(b1-3)Gal(b1-4)GlcNAc(b1-2)Man(a1-3)[GlcNAc(b1-3)Gal(b1-4)GlcNAc(b1-3)Gal(b1-4)GlcNAc(b1-2)Man(a1-6)]Man(b1-4)GlcNAc(b1-4)[Fuc(a1-6)]GlcNAc
# Summary of the method: as §1
# [18] = target: GlcNAc(b1-3)Gal(b1-4)GlcNAc(b1-3)Gal(b1-4)GlcNAc(b1-2)[GlcNAc(b1-3)Gal(b1-4)GlcNAc(b1-3)Gal(b1-4)GlcNAc(b1-6)]Man(a1-6)[GlcNAc(b1-3)Gal(b1-4)GlcNAc(b1-3)Gal(b1-4)GlcNAc(b1-2)Man(a1-3)]Man(b1-4)GlcNAc(b1-4)[Fuc(a1-6)]GlcNAc
# Summary of the method: as §1
# [19] = target: GlcNAc(b1-3)Gal(b1-4)GlcNAc(b1-3)Gal(b1-4)GlcNAc(b1-3)Gal(b1-4)GlcNAc(b1-2)Man(a1-3)[GlcNAc(b1-3)Gal(b1-4)GlcNAc(b1-3)Gal(b1-4)GlcNAc(b1-3)Gal(b1-4)GlcNAc(b1-2)Man(a1-6)]Man(b1-4)GlcNAc(b1-4)GlcNAc
# Summary of the method: as §1
# [20] = target: GlcNAc(b1-3)Gal(b1-4)GlcNAc(b1-3)Gal(b1-4)GlcNAc(b1-3)Gal(b1-4)GlcNAc(b1-2)Man(a1-3)[GlcNAc(b1-3)Gal(b1-4)GlcNAc(b1-3)Gal(b1-4)GlcNAc(b1-3)Gal(b1-4)GlcNAc(b1-2)Man(a1-6)]Man(b1-4)GlcNAc(b1-4)[Fuc(a1-6)]GlcNAc
# Summary of the method: as §1
# [21] = target: GlcNAc(b1-3)Gal(b1-4)GlcNAc(b1-3)Gal(b1-4)GlcNAc(b1-3)Gal(b1-4)GlcNAc(b1-2)[GlcNAc(b1-3)Gal(b1-4)GlcNAc(b1-3)Gal(b1-4)GlcNAc(b1-3)Gal(b1-4)GlcNAc(b1-6)]Man(a1-6)[GlcNAc(b1-3)Gal(b1-4)GlcNAc(b1-3)Gal(b1-4)GlcNAc(b1-3)Gal(b1-4)GlcNAc(b1-2)Man(a1-3)]Man(b1-4)GlcNAc(b1-4)[Fuc(a1-6)]GlcNAc
# Summary of the method: as §1
# [22] = target: GlcNAc(b1-3)Gal(b1-4)GlcNAc(b1-3)Gal(b1-4)GlcNAc(b1-3)Gal(b1-4)GlcNAc(b1-3)Gal(b1-4)GlcNAc(b1-2)Man(a1-3)[GlcNAc(b1-3)Gal(b1-4)GlcNAc(b1-3)Gal(b1-4)GlcNAc(b1-3)Gal(b1-4)GlcNAc(b1-3)Gal(b1-4)GlcNAc(b1-2)Man(a1-6)]Man(b1-4)GlcNAc(b1-4)GlcNAc
# Summary of the method: as §1
# [23] = target: GlcNAc(b1-3)Gal(b1-4)GlcNAc(b1-3)Gal(b1-4)GlcNAc(b1-3)Gal(b1-4)GlcNAc(b1-3)Gal(b1-4)GlcNAc(b1-2)Man(a1-3)[GlcNAc(b1-3)Gal(b1-4)GlcNAc(b1-3)Gal(b1-4)GlcNAc(b1-3)Gal(b1-4)GlcNAc(b1-3)Gal(b1-4)GlcNAc(b1-2)Man(a1-6)]Man(b1-4)GlcNAc(b1-4)[Fuc(a1-6)]GlcNAc
# Summary of the method: as §1
# [24] = target: GlcNAc(b1-3)Gal(b1-4)GlcNAc(b1-3)Gal(b1-4)GlcNAc(b1-3)Gal(b1-4)GlcNAc(b1-3)Gal(b1-4)GlcNAc(b1-2)[GlcNAc(b1-3)Gal(b1-4)GlcNAc(b1-3)Gal(b1-4)GlcNAc(b1-3)Gal(b1-4)GlcNAc(b1-3)Gal(b1-4)GlcNAc(b1-6)]Man(a1-6)[GlcNAc(b1-3)Gal(b1-4)GlcNAc(b1-3)Gal(b1-4)GlcNAc(b1-3)Gal(b1-4)GlcNAc(b1-3)Gal(b1-4)GlcNAc(b1-2)Man(a1-3)]Man(b1-4)GlcNAc(b1-4)[Fuc(a1-6)]GlcNAc
# Summary of the method: as §1
# [25] = target: GlcNAc(b1-3)Gal(b1-4)GlcNAc(b1-3)Gal(b1-4)GlcNAc(b1-3)GalNAc
# Summary of the method: as §1
# [26] = target: GlcNAc(b1-3)Gal(b1-4)GlcNAc(b1-3)GalNAc
# Summary of the method: as §1
# [27] = target: GlcNAc(b1-3)Gal(b1-4)GlcNAc(b1-3)[GlcNAc(b1-3)Gal(b1-4)GlcNAc(b1-3)]GalNAc
# Summary of the method: as §1
# [28] = target: GlcNAc(b1-3)Gal(b1-4)GlcNAc(b1-6)[Gal(b1-3)]GalNAc
# Summary of the method: as §1
# [29] = target: GlcNAc(b1-3)Gal(b1-4)GlcNAc(b1-6)[GlcNAc(b1-3)Gal(b1-3)]GalNAc
# Summary of the method: as §1
# [30] = target: GlcNAc(b1-3)Gal(b1-4)GlcNAc(b1-6)[GlcNAc(b1-3)]Gal(b1-4)GlcNAc
# Summary of the method: as §1
# [31] = target: GlcNAc(b1-3)GalNAc
# Summary of the method: as §1
# [32] = target: GlcNAc(b1-3)Man
# Summary of the method: as §1
# [33] = target: GlcNAc(b1-3)[GlcNAc(b1-4)][GlcNAc(b1-6)]GlcNAc
# Summary of the method: as §1
# [34] = target: GlcNAc(b1-3)[GlcNAc(b1-6)]Gal(b1-4)GlcNAc
# Summary of the method: as §1
# [35] = target: GlcNAc(b1-3)[GlcNAc(b1-6)]GalNAc
# Summary of the method: as §1
# [36] = target: GlcNAc(b1-4)Gal(b1-4)GlcNAc
# Summary of the method: as §1
# [37] = target: GlcNAc(b1-4)GlcNAc
# Summary of the method: as §1
# [38] = target: GlcNAc(b1-4)GlcNAc(b1-4)GlcNAc
# Summary of the method: as §1
# [39] = target: GlcNAc(b1-4)GlcNAc(b1-4)GlcNAc(b1-4)GlcNAc(b1-4)GlcNAc
# Summary of the method: as §1
# [40] = target: GlcNAc(b1-4)GlcNAc(b1-4)GlcNAc(b1-4)GlcNAc(b1-4)GlcNAc(b1-4)GlcNAc
# Summary of the method: as §1
# [41] = target: GlcNAc(b1-4)[GlcNAc(b1-6)]GalNAc
# Summary of the method: as §1
# [42] = target: GlcNAc(b1-6)Gal(b1-4)GlcNAc
# Summary of the method: as §1
# [43] = target: GlcNAc(b1-6)GalNAc
# Summary of the method: as §1
# [44] = target: GlcNAc3Prop(b1-4)GlcNAc
# Summary of the method: as §1
# [45] = target: GlcNAc6S(b1-3)Gal(b1-4)GlcNAc
# Summary of the method: as §1
binder,measurement,setting,value
B1,glycan array binding signal (z-score),[1],-0.18
same,glycan array binding signal (z-score),[2],0.175
same,glycan array binding signal (z-score),[3],-0.252
same,glycan array binding signal (z-score),[4],-0.251
same,glycan array binding signal (z-score),[5],-0.24
same,glycan array binding signal (z-score),[6],-0.266
same,glycan array binding signal (z-score),[7],-0.107
same,glycan array binding signal (z-score),[8],-0.271
same,glycan array binding signal (z-score),[9],-0.215
same,glycan array binding signal (z-score),[10],-0.269
same,glycan array binding signal (z-score),[11],-0.268
same,glycan array binding signal (z-score),[12],-0.256
same,glycan array binding signal (z-score),[13],-0.244
same,glycan array binding signal (z-score),[14],-0.201
same,glycan array binding signal (z-score),[15],-0.248
same,glycan array binding signal (z-score),[16],-0.16
same,glycan array binding signal (z-score),[17],-0.243
same,glycan array binding signal (z-score),[18],-0.241
same,glycan array binding signal (z-score),[19],-0.257
same,glycan array binding signal (z-score),[20],-0.241
same,glycan array binding signal (z-score),[21],-0.239
same,glycan array binding signal (z-score),[22],-0.252
same,glycan array binding signal (z-score),[23],-0.248
same,glycan array binding signal (z-score),[24],-0.248
same,glycan array binding signal (z-score),[25],-0.23
same,glycan array binding signal (z-score),[26],-0.261
same,glycan array binding signal (z-score),[27],-0.261
same,glycan array binding signal (z-score),[28],-0.259
same,glycan array binding signal (z-score),[29],-0.244
same,glycan array binding signal (z-score),[30],-0.116
same,glycan array binding signal (z-score),[31],-0.258
same,glycan array binding signal (z-score),[32],-0.26
same,glycan array binding signal (z-score),[33],-0.244
same,glycan array binding signal (z-score),[34],-0.267
same,glycan array binding signal (z-score),[35],-0.253
same,glycan array binding signal (z-score),[36],0.407
same,glycan array binding signal (z-score),[37],-0.259
same,glycan array binding signal (z-score),[38],-0.263
same,glycan array binding signal (z-score),[39],-0.264
same,glycan array binding signal (z-score),[40],-0.262
same,glycan array binding signal (z-score),[41],-0.263
same,glycan array binding signal (z-score),[42],-0.26
same,glycan array binding signal (z-score),[43],-0.258
same,glycan array binding signal (z-score),[44],-0.274
same,glycan array binding signal (z-score),[45],-0.26
